Measured values taken from the supplement of paper PMC11417369.
± gives the standard deviation of the averaged measurements. The list shows a part of the results.

test system: PfAP2-G AP2 domain (GST-tagged); assay: gcPBM binding intensity (ln(normalized median fluorescence intensity)); higher = stronger DNA binding
How it was run: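 In this array assay, P. falciparum DNA-binding domains with a GST tag, expressed in E. coli, were applied for 1 h to primer-extended double-stranded 36-bp intergenic genomic probes and negative controls on an Agilent 4 × 180k array. Bound protein was visualised with Alexa488 anti-GST antibody at 488 nm. Binding intensity is the highest Masliner-normalised natural-log median intensity across replicate spots of either probe orientation.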

Sequence	gcPBM binding intensity (ln)
TTTTTTCTTAGTTATACATGCAAAATAAATAAATAA [TGCATGCA_site410]	9.96 ± 0.28
TATTTTTTCTTAAACACACACATATATATATAGAAT [CACACA_site2836]	10.1 ± 0.19
TTAAATGAAAAAATATGTACGTATAATAAGAAATAT [XGTACX_site6619]	11.6 ± 0.87
TGCATACATAAATGTATATATTAATATATATCATAT [GTGCAC_negctrl_site252]	9.62 ± 0.12
ATTTATATATAATTTTGTACGAAAAAAATAAGGTAT [XGTACX_site3578]	11 ± 0.67
TATATATTTATTAAATGTACATAACAAAAATGGTAT [XGTACX_site3577]	11.1 ± 0.52
TTTTTTTTTTTGTTCACACATATACTTTTATTTTGG [CACACA_site4250]	10.2 ± 0.23
AATGCTATCATTAATGCACACATTTAAACTTAATAT [CACACA_site5878]	10.03 ± 0.035
TATAACGCTTGCAGCTGTACAAAAATAATCAAACTG [XGTACX_site2464]	10.7 ± 0.34
AAAAGATTTATACATACACACATATTATAGTCACAT [CACACA_site7701]	10.02 ± 0.049
TGTATACGCATATGTACACACATATATATGTATATG [CACACA_site3087]	11.4 ± 0.9
GTGTAATTATCAGCATAAATATGGTACATACATAAA [CACACA_negctrl_site323]	10.9 ± 0.57
TTTGTTTTAAATATTATACACACGTAAAAGTAGAAT [CACACA_site214]	10.5 ± 0.45
GGAAACCTTTTTTTTACACACAATATATTAATACTT [CACACA_site1403]	10.04 ± 0.049
TACACCCTATTTTTATGTACTTATTTGATTTACACA [XGTACX_site8172]	11.4 ± 0.84
ATATAAATACGGTGTGCACACACATAATATATATAT [CACACA_site2271]	10.7 ± 0.38
CAAGAAAATGGACACACACACATATATATATATATA [CACACA_site6010]	10.9 ± 0.6
CAAATTTAAAAAAAATCACACACAGAAAAAAAAAAA [CACACA_site8728]	10.01 ± 0.028
AAACGTATGTTATTTACACACCCTTCCACTTTTATA [CACACA_site3337]	9.94 ± 0.057
TATAAAATAAGACATGCATGTTATACATATATATTT [TGCATGCA_site156]	9.8 ± 0.16
CATTATTATTTTATAACACACACATATATATTATAT [CACACA_site8405]	10.1 ± 0.16
ATGTTTTTTATTCTTCGTACGTATGAACGATAGTGT [XGTACX_site4225]	11.1 ± 0.74

Sequence	gcPBM binding intensity (ln)
TGAAATTTCAATACATGTACATATAAAAAAAAAAAA [XGTACX_site4424]	11.3 ± 0.93
TGTATATGTGAAGCAAGGGATGCGGCAGACATAACA [CACACA_negctrl_site1339]	10.15 ± 0.099
ATGTGCAAATATTAAAGTACTAAATTTTATTATTTT [XGTACX_site7306]	10.8 ± 0.47
ATAAATACATATAAAAGTACACACACACACATATAT [XGTACX_site1744]	11.5 ± 0.93
AAAAAAAAAAAAAAATGTACATATATATATTATAAA [XGTACX_site518]	11.1 ± 0.57
TTTTTTTTTTCTACAAGTACATATTTTCATTTAACA [XGTACX_site6621]	11.1 ± 0.64
AAATTAAAAAAAAATAAATAAAAAAAAAAAAAAAAT [CACACA_negctrl_site1611]	9.67 ± 0.071
TAAGCATAAATGTATACATGCGATGCATACACATAT [TGCATGCA_site749]	9.795 ± 0.021
ATGAAATTATATTGGGGTACGTCAAAAAAGGAGATA [XGTACX_site7451]	11.4 ± 0.83
CAGATAGACTTATATGCATGCATTCACCTGCCAACA [TGCATGCA_site158]	10 ± 0.042
ATATTACATAATATATGTACACACGCAAATACTTAT [XGTACX_site671]	11.4 ± 0.79
GGGTATATATTATTATGTACACATGTATAAAATAAG [XGTACX_site2633]	11.5 ± 0.78
AAAAAAAAAAAAATTACACACATACATATAATAATA [CACACA_site8680]	9.86 ± 0.028
ATATTAAGAATAAACAGTACATATAATAAATACCAT [XGTACX_site5933]	10.9 ± 0.52
ATTAAAAAAAAAGAGCGTACAAATAATTACTTCTTT [XGTACX_site8262]	11.5 ± 0.73
TATAAATTTATAAATAGTACATATATTTATATATAT [XGTACX_site6433]	11.1 ± 0.76
AAAAAAAATATACATACATGCATACATAAGTTTCTA [TGCATGCA_site998]	9.82 ± 0.071
TATATATATGGACACACACACACATATATATATATA [CACACA_site6121]	10.9 ± 0.73
TTTGTGTATATATAATGTACATTATATTTTTATTAT [XGTACX_site6506]	10.9 ± 0.53
AGTAGATATAATATATGTACATATATATATATATAT [XGTACX_site7186]	11.2 ± 0.53
AAAAAAAAAAAAAAATGTACATATATATATATATTA [XGTACX_site7330]	11 ± 0.59
ATAAAATAAGACAAAAAAAAAATATATATATATATA [TGCATGCA_negctrl_site314]	9.87 ± 0.5
